Test results as given in the supplement of paper PMC4604168 (melanoma cell lines).
The other results are listed elsewhere or left out. Single values are uncertain, as repeats are few or missing.

Columns and labels:
Test in all cases: cell count relative to DMSO control; melanoma cells; higher = more viable cells
Settings in all cases: library dose: standard library concentration; 72 h
SkMel28 = system: SkMel28
SkMel2 = system: SkMel2
SkMel30 = system: SkMel30
SkMel5 = system: SkMel5
UACC257 = system: UACC257
UACC62 = system: UACC62
WM115 = system: WM115
WM1716 = system: WM1716
WM1745 = system: WM1745
WM3526 = system: WM3526
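Also: cells treated in 1,536-well plates, then fixed and DAPI-stained, with nuclei counted from automated high-throughput microscope images.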

SMILES	cell count (SkMel28)	cell count (SkMel2)	cell count (SkMel30)	cell count (SkMel5)	cell count (UACC257)	cell count (UACC62)	cell count (WM115)	cell count (WM1716)	cell count (WM1745)	cell count (WM3526)
COc1ccc(C2=N[C@@H](c3ccc(Cl)cc3)[C@@H](c3ccc(Cl)cc3)N2C(=O)N2CCNC(=O)C2)c(OC(C)C)c1 [Nutlin-3] + Cn1c(Nc2ccc(C(F)(F)F)cc2)nc2cc(Oc3ccnc(-c4ncc(C(F)(F)F)[nH]4)c3)ccc21 [CHIR265] (first compound 0.5 µM, partner dose 0.4 µM)	38.7%	47.2%	61.8%	32.7%	77.3%	56.5%	36.7%	57.7%	56.8%	44.1%
CC(C)C[C@H](NC(=O)[C@H](Cc1ccccc1)NC(=O)c1cnccn1)B(O)O [Bortezomib] + CO[C@H]1C[C@@H]2CC[C@@H](C)[C@@](O)(O2)C(=O)C(=O)N2CCCC[C@H]2C(=O)O[C@H]([C@H](C)C[C@@H]2CC[C@@H](OCCO)[C@H](OC)C2)CC(=O)[C@H](C)/C=C(\C)[C@@H](O)[C@@H](OC)C(=O)[C@H](C)C[C@H](C)/C=C/C=C/C=C/1C [everolimus] (first compound 0.005 µM, partner dose 0.1 µM)	42%	32.9%	39.4%	30.6%	73.1%	50.9%	19.4%	17.2%	15.7%	38%
Cc1cn(-c2cc(NC(=O)c3ccc(C)c(Nc4nccc(-c5cccnc5)n4)c3)cc(C(F)(F)F)c2)cn1 [nilotinib] + CN(C)S(=O)(=O)c1ccc2c(c1)/C(=C/c1cc3c([nH]1)CCCC3)C(=O)N2 [SU6656] (first compound 1 µM, partner dose 2 µM)	67.5%	98.1%	82.3%	61.7%	86.4%	72.4%	67.8%	83.8%	52.9%	56.6%
Cn1c(=O)n(-c2ccc(C(C)(C)C#N)cc2)c2c3cc(-c4cnc5ccccc5c4)ccc3ncc21 + C[C@@H]1CCN(C(=O)CC#N)C[C@@H]1N(C)c1ncnc2[nH]ccc12 [CP690550] (first compound 0.02 µM, partner dose 5 µM)	58.8%	70.2%	74.8%	72.7%	100%	102%	96%	80.6%	96.4%	68.2%
COc1ccc(C2=N[C@@H](c3ccc(Cl)cc3)[C@@H](c3ccc(Cl)cc3)N2C(=O)N2CCNC(=O)C2)c(OC(C)C)c1 [Nutlin-3] + COc1cc2c(Oc3ccc4[nH]c(C)cc4c3F)ncnc2cc1OCCCN1CCCC1 [cediranib] (first compound 0.5 µM, partner dose 2 µM)	74%	95.6%	108%	76.9%	67.1%	66.1%	74.2%	83.1%	77%	85.6%
Cn1c(=O)n(-c2ccc(C(C)(C)C#N)cc2)c2c3cc(-c4cnc5ccccc5c4)ccc3ncc21 + NC(=O)Nc1cc(-c2cccc(F)c2)sc1C(=O)N[C@H]1CCCNC1 [AZD7762] (first compound 0.02 µM, partner dose 0.1 µM)	24.8%	51.4%	67.9%	71.5%	94%	62.7%	54.9%	70.5%	50.8%	53%
Cc1cn(-c2cc(NC(=O)c3ccc(C)c(Nc4nccc(-c5cccnc5)n4)c3)cc(C(F)(F)F)c2)cn1 [nilotinib] + O=C(O)[C@@H]1[O][Sb](=[O])([O][Sb]2(=[O])[O][C@H]([C@H](O)CO)[C@H](O)[C@H](C(=O)O)[O]2)[O][C@H]([C@H](O)CO)[C@@H]1O [stibogluconate] (first compound 1 µM, partner dose 10 µM)	77.7%	95.4%	105%	64.2%	147%	108%	101%	93.4%	88.8%	76.9%
CC(C)C[C@H](NC(=O)[C@H](Cc1ccccc1)NC(=O)c1cnccn1)B(O)O [Bortezomib] + O=C(Nc1cccc(Cl)c1)Nc1ncc(CCNc2ncnc3ccsc23)s1 [SNS314] (first compound 0.005 µM, partner dose 0.004 µM)	18.1%	38.6%	27%	30%	54.9%	84.5%	21.4%	15.8%	17.2%	24.1%
COc1ccc(C2=N[C@@H](c3ccc(Cl)cc3)[C@@H](c3ccc(Cl)cc3)N2C(=O)N2CCNC(=O)C2)c(OC(C)C)c1 [Nutlin-3] + NC1(c2ccc(-c3nc4ccn5c(=O)[nH]nc5c4cc3-c3ccccc3)cc2)CCC1 [MK2206] (first compound 0.5 µM, partner dose 2 µM)	57%	77.7%	85.4%	68.4%	86.5%	70.2%	71.7%	71.7%	68%	101%
Cc1cc(Nc2cc(N3CCN(C)CC3)nc(/C=C/c3ccccc3)n2)n[nH]1 + OCCn1cc(-c2cnc3nnn(Cc4ccc5ncccc5c4)c3n2)cn1 [PF04217903] (first compound 0.2 µM, partner dose 5 µM)	84.2%	98.4%	108%	72.9%	87.4%	95%	51.4%	97.8%	72.5%	84.6%
Cc1cc(Nc2cc(N3CCN(C)CC3)nc(/C=C/c3ccccc3)n2)n[nH]1 + CCCS(=O)(=O)Nc1ccc(F)c(C(=O)c2c[nH]c3ncc(Cl)cc23)c1F [PLX4720] (first compound 0.2 µM, partner dose 0.4 µM)	42.1%	103%	92%	65.5%	101%	56.2%	74.4%	67.2%	69.9%	49%
COc1ccc(C2=N[C@@H](c3ccc(Cl)cc3)[C@@H](c3ccc(Cl)cc3)N2C(=O)N2CCNC(=O)C2)c(OC(C)C)c1 [Nutlin-3] + CO[C@H]1C[C@@H]2CC[C@@H](C)[C@@](O)(O2)C(=O)C(=O)N2CCCC[C@H]2C(=O)O[C@H]([C@H](C)C[C@@H]2CC[C@@H](OCCO)[C@H](OC)C2)CC(=O)[C@H](C)/C=C(\C)[C@@H](O)[C@@H](OC)C(=O)[C@H](C)C[C@H](C)/C=C/C=C/C=C/1C [everolimus] (first compound 0.5 µM, partner dose 0.1 µM)	45%	74.1%	80.9%	62%	80.2%	64.4%	54.3%	74.1%	90.7%	69.7%
Cc1cc(Nc2cc(N3CCN(C)CC3)nc(/C=C/c3ccccc3)n2)n[nH]1 + COc1cc2c(Oc3ccc4[nH]c(C)cc4c3F)ncnc2cc1OCCCN1CCCC1 [cediranib] (first compound 0.2 µM, partner dose 2 µM)	52.9%	75.9%	102%	63.7%	92.4%	93.3%	54.7%	72.1%	37%	79.4%
Cc1cn(-c2cc(NC(=O)c3ccc(C)c(Nc4nccc(-c5cccnc5)n4)c3)cc(C(F)(F)F)c2)cn1 [nilotinib] + C[C@@H]1CCN(C(=O)CC#N)C[C@@H]1N(C)c1ncnc2[nH]ccc12 [CP690550] (first compound 1 µM, partner dose 5 µM)	116%	76.3%	106%	68%	130%	97.3%	95%	106%	79.2%	92.5%
COc1ccc(C2=N[C@@H](c3ccc(Cl)cc3)[C@@H](c3ccc(Cl)cc3)N2C(=O)N2CCNC(=O)C2)c(OC(C)C)c1 [Nutlin-3] + O=C(Nc1cccc(Cl)c1)Nc1ncc(CCNc2ncnc3ccsc23)s1 [SNS314] (first compound 0.5 µM, partner dose 0.004 µM)	38.6%	76.4%	84.7%	70.1%	74.2%	61.3%	43.4%	52.5%	87.8%	83.8%
CC(C)C[C@H](NC(=O)[C@H](Cc1ccccc1)NC(=O)c1cnccn1)B(O)O [Bortezomib] + COc1ccc(Cl)c(Nc2nc3ccccc3nc2NS(=O)(=O)c2cccc(NC(=O)C(C)(C)N)c2)c1 [XL147] (first compound 0.005 µM, partner dose 4 µM)	36.9%	69.5%	40.9%	20.6%	76.5%	64.8%	30%	15.9%	17.7%	35%
Cc1cc(Nc2cc(N3CCN(C)CC3)nc(/C=C/c3ccccc3)n2)n[nH]1 + Cn1nnc2c(C(N)=O)ncn2c1=O [temozolomide] (first compound 0.2 µM, partner dose 10 µM)	43.6%	116%	54%	87.8%	108%	76.3%	60.7%	57.3%	74.9%	74.3%
COc1ccc(C2=N[C@@H](c3ccc(Cl)cc3)[C@@H](c3ccc(Cl)cc3)N2C(=O)N2CCNC(=O)C2)c(OC(C)C)c1 [Nutlin-3] + CC(C)C[C@H](NC(=O)[C@H](Cc1ccccc1)NC(=O)c1cnccn1)B(O)O [Bortezomib] (first compound 0.5 µM, partner dose 0.005 µM)	27.2%	57.2%	38.3%	23.6%	63.2%	56.1%	22%	15.9%	15.7%	25.7%
